± gives the standard deviation of the averaged measurements. The list shows a part of the results.
System: PfAP2-G AP2 domain (GST-tagged)
Assay: gcPBM binding intensity (ln(normalized median fluorescence intensity)); higher = stronger DNA binding
Summary of the method: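 After 1 h on an Agilent 4 × 180k array of primer-extended double-stranded 36-bp intergenic genomic probes and negative controls, bound GST-tagged P. falciparum DNA-binding domains were detected with Alexa488 anti-GST antibody and scanned at 488 nm. The domains had been expressed in E. coli, and binding took place in 1× PBS with 1% milk, 0.2 mg/ml BSA, 0.5% salmon testes DNA and 0.03% Triton X-100. Binding intensity is the highest Masliner-normalised natural-log median intensity across replicate spots of either probe orientation.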

Sequence | gcPBM binding intensity (ln)
ATAAAACATAAATACATACACACATAATATATATTA [CACACA_site110] | 9.98 ± 0.071
TAAAAATGGGTATGTACACACTTTATTTTTAATACA [CACACA_site5404] | 11.5 ± 0.92
TTGTGTTTTATTATTTTATTATTACTATTATAATGT [GTGCAC_negctrl_site484] | 9.86 ± 0.071
TGTAATGTTTACAACACACAAATTAGAAATACAAAA [CACACA_site6924] | 10.2 ± 0.3
ACATATTTAAAAACATGTACAAATATATTTATAATT [XGTACX_site661] | 10.9 ± 0.65
AAGGAAGATATATACACACATACAAATATATATATA [CACACA_site2181] | 9.865 ± 0.092
TTTTTTCAATTGGAAATTATTTTACAATGAAGGGTA [XGTACX_negctrl_site469] | 9.94 ± 0.29
GATATATATACATGTGTGCACCATGCAACTTGTTTT | 10.4 ± 0.2
TATTTTACGTATTGTTGTACTTGAAACAAATATACA [XGTACX_site8778] | 11.3 ± 0.94
TTATTTATAATGTTGTGTACATATATGAATATACCA [XGTACX_site3111] | 11.5 ± 0.59
AAGAAAAAATAAAGCACACAAATATTTTAAAAACAC [CACACA_site3325] | 10.5 ± 0.4
CGTTTCCCCAATGGTTGTACAATATATATATATATA [XGTACX_site8641] | 11.2 ± 0.66
AGACATATAATATATACACACATATATATATATATA [CACACA_site1066] | 9.94 ± 0.23
TATAAACATAAATATACACACAAACATATATGTATT [CACACA_site8324] | 9.895 ± 0.021
ATATTTGCCCAAGATAGTACATATATATATATATAT [XGTACX_site7756] | 11 ± 0.58
ATCAACATCTAACATTGTACATGTGATGTGTAAAAG [XGTACX_site547] | 10.8 ± 0.47
AATTCTCTTAATAAATAAACACAAATAAATAATAAA [GTGCAC_negctrl_site499] | 9.77 ± 0.13
CATACATACAAACACACACACACACCGATATATATA [CACACA_site8952] | 10 ± 0.2
CACATACAGACATACACACACATATATATTAATATA [CACACA_site546] | 10.3 ± 0.3
ATATTGGAGCACAACACACACAAGTATATATATGGA [CACACA_site1546] | 10.4 ± 0.39
AAATAGCCAAAAATCATGCACACCTAAAAAAAAAAA [CACACA_site2572] | 10.1 ± 0.17
TATATATATATATATTGTACATATATTATTATATAT [XGTACX_site7447] | 10.9 ± 0.53
TTAATTTACATGAACTGTACATAACATTTTTTTAAA [XGTACX_site4672] | 11 ± 0.59
ATCAAAATATTTATATGTACATATTAAAAATATAGA [XGTACX_site725] | 11.2 ± 0.79
TATATAATAAAAAAAAGTACTTGGACAATATTATTT [XGTACX_site2802] | 11.4 ± 0.84

Source: the supplement of paper PMC11417369
